Test results taken from PubChem BioAssay AID686971 (National Center for Advancing Translational Sciences (NCATS), 2013).
Hit rate of the full screen: of about 360,000 compounds, about 7,500 (2.1%) were called active. Inconclusive means that the source gave no clear call. Such entries were picked first, then a sample of the others. Calls follow the shape of the dose curve; as a rule, active = well fitted cell-killing curve with a large enough effect; inconclusive = small, poorly fitted or top-dose-only effect, or effect the other way, or another doubt; inactive = no such curve, though single readings can be large or run the other way. Potencies of inconclusive entries are left out as doubtful fits.

Assay: qHTS for induction of synthetic lethality in tumor cells producing 2HG: qHTS for the HT-1080-IDH1KD cell line;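 as to activity, negative = toxicity: 0% = DMSO wells and -100% = cell-free medium wells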
Conditions: HT-1080 IDH1 knockdown viability, ATP luminescence, 48 h; activity, negative = toxicity: at 46.1 µM (top of the series) unless noted
In short: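 Luminescent ATP read-out (CellTiter-Glo, 10 min at room temperature) after 48 h compound exposure at 37 °C gave viability of IDH1-knockdown HT-1080 cells. Activity was normalised to DMSO and cell-free wells, then fitted as concentration-response curves.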
Potency is read from the fitted curve at half-maximal effect; tags tell the direction and shape of the fitted curve.

Row | SMILES | Potency | activity, negative = toxicity
1 | O=C(NCCC1=CCCCC1)C1CCN(S(=O)(=O)c2ccc(-n3cnnn3)cc2)CC1 | inactive | 
2 | CCOC(=O)C1=C(C)C(c2ccccc2OC)NC(=S)N1 (stereo not given) | inactive | 
3 | CCCc1nnc(SCC(=O)NC2CCCC2)n1CCOC | inactive | 
4 | CCCCCN1C=CC(=C2C(=O)c3ccccc3C2=O)C=C1 | active: 9.2 µM | 
5 | O=C(Nc1ccccc1N1CCN(C(=O)c2ccccc2)CC1)c1ccc(Br)o1 | inactive | 
6 | COC(=O)C1=C(C)N(Cc2ccccc2)C(=NCc2cccc(Cl)c2)N[C@H]1c1cccc(F)c1 | inconclusive [cytotoxic, single point] | 
7 | CC(C)CC(N)c1csc(Nc2ccc(C(=O)N(C)Cc3ccccc3)cn2)n1 (stereo not given) | active: 5.8 µM | 
8 | CC1(c2ccc3ccccc3c2)NC(=O)N(CC(=O)N2CCN(S(=O)(=O)c3ccccc3F)CC2)C1=O (stereo not given) |  | inconclusive: -32.8% [cytotoxic]
9 | CC(C)CNc1nc(N)c([N+](=O)[O-])c(N2CCCCCC2)n1 | inconclusive [cytotoxic, partial curve] | 
10 | COc1ccc(C(=O)N=C2SC3CS(=O)(=O)CC3N2c2ccc(C(C)=O)cc2)cc1 (stereo not given) | inactive | 
11 | COc1ccc(NC(=O)C2(C)Cc3c(-c4cccc(C(N)=O)c4)ccnc3O2)cc1 (stereo not given) | inconclusive [cytotoxic, full curve] | 
12 | O=C(OCC(=O)N(CCc1ccccc1)Cc1ccccc1)c1ccc(F)c(S(=O)(=O)N2CCOCC2)c1 | inactive | 
13 | CCN(CC)CCOC(=O)c1ccc(NC(=O)CCCN2C(=O)/C(=C\c3cccs3)SC2=S)cc1 | inconclusive [cytotoxic, single point] | 
14 | O=C(NCc1ccco1)c1sc2cccc(F)c2c1Cl | inconclusive [cytotoxic, single point] | 
15 | Cc1ccc(Nc2nc(NCc3cccs3)nc3ccsc23)c(C)c1 | inconclusive [cytotoxic, single point] | 
16 | C/C(=N\NC(=O)c1ccc(C)cc1)c1c(C)[nH]n(-c2ccccc2)c1=O | active: 14.6 µM | 
17 | O=C(Cn1nc2ccccc2n1)N/N=C/c1cc([N+](=O)[O-])ccc1O | inconclusive [cytotoxic, single point] | 
18 | Cc1nc(C(=O)NNC(=O)c2cccc(Cl)c2)c(C(F)(F)F)o1 | inconclusive [cytotoxic, partial curve] | 
19 | CC(C)Oc1ccc(C(=O)Nc2ccc(N3CCCC3)cc2)cc1 | inconclusive [cytotoxic, single point] | 
20 | COc1ccc2cc3[n+](cc2c1OC)CCc1cc2c(cc1-3)OCO2 | inconclusive [cytotoxic, full curve] | 
